In patent US20250066451A1 (SWEDISH ORPHAN BIOVITRUM AB PUBL, published 2025):

T1: IL-1R-I on cells (TF-1 cells, NHDF cells, human whole blood) (human, UniProt P14778 18-569)
T1 sequence (looked up): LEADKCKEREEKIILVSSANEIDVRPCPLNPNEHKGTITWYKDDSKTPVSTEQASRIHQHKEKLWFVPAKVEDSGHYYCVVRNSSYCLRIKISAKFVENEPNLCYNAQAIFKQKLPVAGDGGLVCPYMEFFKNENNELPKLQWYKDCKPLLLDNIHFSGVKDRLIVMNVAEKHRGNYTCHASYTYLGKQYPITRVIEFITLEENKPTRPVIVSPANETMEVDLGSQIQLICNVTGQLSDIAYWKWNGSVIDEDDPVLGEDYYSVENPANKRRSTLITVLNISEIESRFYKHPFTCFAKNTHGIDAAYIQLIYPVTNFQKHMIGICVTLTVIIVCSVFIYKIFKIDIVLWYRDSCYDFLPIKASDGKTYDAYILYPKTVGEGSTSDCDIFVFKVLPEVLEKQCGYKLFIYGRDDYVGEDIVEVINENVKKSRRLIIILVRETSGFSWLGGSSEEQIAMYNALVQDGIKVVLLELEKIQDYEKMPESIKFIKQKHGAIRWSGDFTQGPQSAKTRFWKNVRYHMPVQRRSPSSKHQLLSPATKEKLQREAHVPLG

T2: Human IL-1R-I (RnD Systems cat. no. 269-1R/CF) (human, UniProt P14778 18-332, limits assumed)
T2 construct: Bought recombinant protein; also called hIL-1R-I; hIL-1RI
T2 sequence (looked up): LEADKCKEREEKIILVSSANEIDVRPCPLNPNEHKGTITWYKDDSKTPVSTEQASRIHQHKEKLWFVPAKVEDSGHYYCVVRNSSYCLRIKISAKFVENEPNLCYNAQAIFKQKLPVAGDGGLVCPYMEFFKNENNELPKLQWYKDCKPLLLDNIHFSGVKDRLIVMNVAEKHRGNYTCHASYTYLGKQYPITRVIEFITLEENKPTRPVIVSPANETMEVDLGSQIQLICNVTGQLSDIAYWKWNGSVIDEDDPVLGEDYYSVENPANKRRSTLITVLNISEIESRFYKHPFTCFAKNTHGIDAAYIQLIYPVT

T3: cynomolgus IL-1R-I-His6 (cynomolgus, UniProt P14778 19-332 (human entry), limits assumed)
T3 construct: also called cIL-1R-I-His6
T3 chain: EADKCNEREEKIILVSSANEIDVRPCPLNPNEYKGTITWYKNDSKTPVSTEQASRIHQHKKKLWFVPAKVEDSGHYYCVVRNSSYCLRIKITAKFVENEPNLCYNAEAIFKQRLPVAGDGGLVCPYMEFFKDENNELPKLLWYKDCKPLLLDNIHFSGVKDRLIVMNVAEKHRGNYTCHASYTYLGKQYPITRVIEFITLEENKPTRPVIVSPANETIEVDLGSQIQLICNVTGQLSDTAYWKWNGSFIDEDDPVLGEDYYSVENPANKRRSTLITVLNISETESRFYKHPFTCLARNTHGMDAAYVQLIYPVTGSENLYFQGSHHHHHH


Columns and labels:
[1] = molecular target: T1, IL-1R-I on cells (TF-1 cells, NHDF …); test: cell-based or functional assay
[2] = molecular target: T1, IL-1R-I on cells (TF-1 cells, NHDF …); test: cell-based or functional assay; remark: listed apart in the source
[3] = molecular target: T2, Human IL-1R-I (RnD Systems cat. no. …); test: Biacore 2000 SPR; hIL-1R-I immobilised on CM5, His6-Z at 40 and 10 nM, 1:1 model
Source text: (§1) One flow cell surface on the chip was activated and deactivated for use as blank during analyte injections.

cynomolgus IL-1R-I-His6 [4] = molecular target: T3, cynomolgus IL-1R-I-His6; test: Biacore 2000 SPR; cIL-1R-I-His6 immobilised on CM5, His6-Z at 40 and 10 nM, 1:1 model
Source text: as §1

[5] = molecular target: T2, Human IL-1R-I (RnD Systems cat. no. …); test: Biacore 2000 SPR (Example 5); hIL-1R-I immobilised, His6-Z at 100, 10 and 1 nM, 1:1 model
Source text: as §1

[6] = molecular target: T2, Human IL-1R-I (RnD Systems cat. no. …); test: Biacore 2000 SPR (Example 9); hIL-1R-I immobilised, His6-Z at 48, 12, 3 and 0.75 nM, 1:1 model
Source text: as §1

cynomolgus IL-1R-I-His6 [7] = molecular target: T3, cynomolgus IL-1R-I-His6; test: Biacore 2000 SPR; cIL-1R-I-His6 immobilised, His6-Z at 100, 10 and 1 nM, 1:1 model
Source text: as §1

Row | IC50, TF-1 cell assay (Example 5) [1] [nM] | IC50, TF-1 cell assay (Example 9) [1] [nM] | IC50, inhibition of IL-1B induced proliferation of TF-1 cells [2] [nM] | Kd [3] [nM] | Kd (cynomolgus IL-1R-I-His6 [4]) [nM] | Kd [5] [nM] | Kd [6] [nM] | Kd (cynomolgus IL-1R-I-His6 [7]) [nM] | Binder
1 | 5.2 | 7.4 | 1.1 | 1.2 | 35 | 0.51 | 0.82 | – | His6-tagged Z12967 (designed binder, also called His6-Z12967) MGSSHHHHHHLQVDAKYAKEAHRAQMEIFALPNLTRRQYTAFIRKLLDDPSQSSELLSEAKKLNDSQAPKVD
2 | – | 0.6 | – | – | – | – | 0.14 | 7.6 | His6-tagged Z18557 (designed binder, also called His6-Z18557) MGSSHHHHHHLQVDAKYAKEIEAVQMEIFYLPNLTRKQYTAFIRKLFDDPSQSSELLSEAKKLNDSQAPKVD
